Results from PubChem BioAssay AID624202 (National Center for Advancing Translational Sciences (NCATS), 2012).
About 4,000 (1.1%) of roughly 380,000 compounds were called active. Inconclusive means that the source gave no clear call. Such entries were picked first, then a sample of the others. Calls follow the shape of the dose curve; as a rule, active = well fitted activation curve with a large enough effect; inconclusive = small, poorly fitted or top-dose-only effect; inactive = no such curve, though single readings can be large or run the other way. A potency beside an inconclusive call is a rough fit, not a confirmed value.

Assay: qHTS Assay to Identify Small Molecule Activators of BRCA1 Expression; also: nearly all actives have a fitted effect of over 80% in size
Settings: MCF7-BRCA1-FFLuc reporter, luminescence, 48 h; activation: at 46.1 µM (top of the series), scaled: vehicle 0%, 10 µM genistein 100% unless noted
In short: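 48 h compound treatment of MCF7-BRCA1-FFLuc cells (phenol-red free MEM, 37 °C), then 15 min with luciferase substrate and luminescence imaging.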
Potency is read from the fitted curve at half-maximal effect; tags tell the direction and shape of the fitted curve.

| SMILES | activation | Potency |
| --- | --- | --- |
| CC1CC(C)CN(c2ncc3c(n2)CC(c2ccccc2)CC3=O)C1 (stereo not drawn) | inactive: -4.2% | – |
| O=C(CSc1nc2ccccc2o1)N/N=C/c1ccco1 | – | inconclusive: 11.2 µM [activator, partial curve, poor fit] |
| CCOc1cc2sc(N3CCC(C(=O)Nc4ccc(C(C)C)cc4)CC3)nc2cc1Br | – | inconclusive: 2.24 µM [activator, full curve, poor fit] |
| O=C(c1ccc(-c2ccc([N+](=O)[O-])cc2)o1)N1CCCCC1 | – | inconclusive: 1.41 µM [activator, full curve, poor fit] |
| O=C(O)c1ccc(/C=N\Nc2ccccn2)cc1 | – | active: 2.51 µM |
| O=C(Cc1ccccc1F)Nc1ccc(SC(F)F)cc1 | – | inconclusive: 7.94 µM [activator, partial curve, poor fit] |
| CC[C@@H]1Cc2[nH][nH]c(=O)c2[C@H](CC(C)C)O1 | inactive: 16.4% | – |
| N#Cc1cnc(Nc2ccc(F)cc2)nc1N | – | inconclusive: 10 µM [activator, partial curve, poor fit] |
| COc1ccc2c(c1)CC/C2=N\OC(=O)c1ccccc1C | – | active: 11.2 µM |
| C[C@H](CO)N1C[C@H](C)[C@@H](CN(C)C(=O)Nc2ccc(C(F)(F)F)cc2)Oc2ccc(NC(=O)Cn3cnnn3)cc2C1=O | inactive: -8.63% | – |
| CCN(CC)c1ccc(NC(=O)Nc2cccc(C(C)=O)c2)cc1 | – | inconclusive: 35.5 µM [activator, single point] |
| CCOC(=S)N/C(=N\S(C)(=O)=O)c1ccccc1 | inactive: 6.29% | – |
| O=C(NCc1ccccc1CN1CCCC1)c1ccc(S(=O)(=O)Nc2ccccc2F)cc1 | inactive: -9.79% | – |
| CCN(c1ccccc1)S(=O)(=O)c1cc(NC(=O)COC(=O)C2CC2)ccc1Cl | – | inconclusive: 15.8 µM [activator, partial curve, poor fit] |
| Cc1ccc(C(=O)NCCc2ccc(F)cc2)s1 | – | inconclusive: 1.58 µM [activator, partial curve, poor fit] |
| COc1cc(CNCCNC(=O)c2nonc2N)ccc1OCc1ccc(Cl)nc1 | inactive: 3.15% | – |
| O=c1[nH]c(Cc2ccc(F)cc2)nc2scc(-c3ccc(F)cc3)c12 | inactive: 3.71% | – |
| O=C(NCC1CC1)c1ccc2c3n(nc2c1)-c1ccccc1CO3 | – | inconclusive: 0.794 µM [activator, full curve, poor fit] |
| COc1ccc(C2=C(Nc3ccc(F)cc3)c3ccccc3C2=O)cc1 | inactive: 0.281% | – |
| Oc1cccc2ccc(Nc3ccccn3)nc12 | inactive: -97.1% | – |
| CC(C)(C)c1ccc(S(=O)(=O)CCc2ccccn2)cc1 | – | active: 14.1 µM |
| C#CCNC(=O)C(C)c1ncc(C(F)(F)F)cc1Cl (stereo not drawn) | inactive: 26.9% | – |
| CC(C)CCN1C(=O)c2ccc(C(=O)Nc3ccccc3C(=O)O)cc2C1=O | – | inconclusive: 15.8 µM [activator, single point] |
| C[n+]1c2cc(N)ccc2cc2ccc(N)cc21 | – | inactive |

| SMILES | activation | Potency |
| --- | --- | --- |
| O=C(NC1CCCCC1)c1cc(-c2cccs2)on1 | – | inconclusive: 2.24 µM [activator, full curve, poor fit] |
| O=C(c1ccco1)N1CCCC(Nc2ccc3c(c2)OCCO3)C1 (stereo not drawn) | – | active: 8.91 µM |
| O=S(=O)(NC1CC2CCC1C2)c1ccc(Br)cc1 (stereo not drawn) | inactive: -2.39% | – |
| CCN(CC)c1ccc(C(=O)NNC(=O)c2cccn2C)cc1 | – | inconclusive: 4.47 µM [activator, partial curve, poor fit] |
| Cc1nc2cc3sc(C)nc3cc2s1 | – | inconclusive: 12.6 µM [activator, partial curve, poor fit] |
| COc1ccc(-c2coc3cc(OC)ccc3c2=O)cc1 | – | active: 2.82 µM |
| S=C(Nc1ccc(Oc2ccc(NC(=S)NC3CCCCC3)cc2)cc1)NC1CCCCC1 | inactive: -23.4% | – |
| CCn1c(C)cc(C(=O)COC(=O)c2cccnc2SC)c1C | – | inconclusive: 11.2 µM [activator, partial curve, poor fit] |
| Cc1cc(C)nc(SCc2csc(-c3ccccc3)n2)n1 | – | inconclusive: 2.51 µM [activator, partial curve, poor fit] |
| O=c1/c(=C\c2ccc3c(c2)OCO3)sc2n1CCCN=2 | – | inconclusive: 3.16 µM [activator, partial curve, poor fit] |
| CCc1ccc(NC(=O)C(CC)c2ccccc2)cc1 (stereo not drawn) | – | inconclusive: 15.8 µM [activator, single point] |
| Cc1nc2cc(NCc3cccs3)ccc2n1C | – | inconclusive: 2.51 µM [activator, partial curve, poor fit] |
| COc1ccc(-c2cn3cccnc3n2)cc1 | – | inconclusive: 10 µM [activator, partial curve, poor fit] |
| COc1ccc(N2C(=O)c3ccccc3NC23CCCCC3)cc1 | – | inconclusive: 1.26 µM [activator, partial curve, poor fit] |
| CCCCOc1ccc(-c2ncc(Cl)cn2)cc1 | – | inconclusive: 3.16 µM [activator, full curve, poor fit] |
| COc1ccc(-n2nc3cc(C)c(N)cc3n2)cc1Cl | – | inconclusive: 1.12 µM [activator, full curve, poor fit] |
| CC(C)Cc1cc(C(=O)Nc2ccc(Br)cc2)no1 | – | inconclusive: 35.5 µM [activator, single point] |
| Cc1c(NC(=O)c2ccccc2N)cccc1C(=O)O | – | inconclusive: 1 µM [activator, full curve, poor fit] |
| CC(C)(C)C(=O)c1cnc(Nc2ccccc2)s1 | – | active: 4.47 µM |
| Cc1ccc(-c2nnc(-c3ccccc3)o2)cc1Br | – | inconclusive: 2.51 µM [activator, partial curve, poor fit] |
| COc1ccc(-c2noc(-c3ccc(NCCc4ccccc4)c([N+](=O)[O-])c3)n2)cc1OC | inactive: 11.6% | – |
| COc1ccc(C(=O)Nc2ccc(N3CCCC3)cc2)cc1Br | – | inconclusive: 14.1 µM [activator, single point] |
| O=C(N/N=C/c1cccc(F)c1)c1c(O)c2c([nH]c1=O)CCCC2 | – | inconclusive: 1.41 µM [activator, full curve, poor fit] |
| CC(=O)c1sc(N/N=C/c2ccc(C(C)C)cc2)nc1C | – | inconclusive: 1 µM [activator, full curve, poor fit] |
